Hit rate of the full screen: of about 310,000 compounds, about 14,000 (4.5%) showed an effect of 50% or more. Effects have a minus sign here. The list shows a part of the results.
What follows are compounds tested against human ether-à-go-go-related gene (hERG) potassium channel (human, UniProt Q12809) (assay: primary screen, population patch clamp on CHO cells stably expressing hERG).
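Also: peak tail current of the secondary pulse compared with the same well before compound.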

human ether-à-go-go-related gene (hERG) potassium channel, sequence (Q12809 whole entry, looked up): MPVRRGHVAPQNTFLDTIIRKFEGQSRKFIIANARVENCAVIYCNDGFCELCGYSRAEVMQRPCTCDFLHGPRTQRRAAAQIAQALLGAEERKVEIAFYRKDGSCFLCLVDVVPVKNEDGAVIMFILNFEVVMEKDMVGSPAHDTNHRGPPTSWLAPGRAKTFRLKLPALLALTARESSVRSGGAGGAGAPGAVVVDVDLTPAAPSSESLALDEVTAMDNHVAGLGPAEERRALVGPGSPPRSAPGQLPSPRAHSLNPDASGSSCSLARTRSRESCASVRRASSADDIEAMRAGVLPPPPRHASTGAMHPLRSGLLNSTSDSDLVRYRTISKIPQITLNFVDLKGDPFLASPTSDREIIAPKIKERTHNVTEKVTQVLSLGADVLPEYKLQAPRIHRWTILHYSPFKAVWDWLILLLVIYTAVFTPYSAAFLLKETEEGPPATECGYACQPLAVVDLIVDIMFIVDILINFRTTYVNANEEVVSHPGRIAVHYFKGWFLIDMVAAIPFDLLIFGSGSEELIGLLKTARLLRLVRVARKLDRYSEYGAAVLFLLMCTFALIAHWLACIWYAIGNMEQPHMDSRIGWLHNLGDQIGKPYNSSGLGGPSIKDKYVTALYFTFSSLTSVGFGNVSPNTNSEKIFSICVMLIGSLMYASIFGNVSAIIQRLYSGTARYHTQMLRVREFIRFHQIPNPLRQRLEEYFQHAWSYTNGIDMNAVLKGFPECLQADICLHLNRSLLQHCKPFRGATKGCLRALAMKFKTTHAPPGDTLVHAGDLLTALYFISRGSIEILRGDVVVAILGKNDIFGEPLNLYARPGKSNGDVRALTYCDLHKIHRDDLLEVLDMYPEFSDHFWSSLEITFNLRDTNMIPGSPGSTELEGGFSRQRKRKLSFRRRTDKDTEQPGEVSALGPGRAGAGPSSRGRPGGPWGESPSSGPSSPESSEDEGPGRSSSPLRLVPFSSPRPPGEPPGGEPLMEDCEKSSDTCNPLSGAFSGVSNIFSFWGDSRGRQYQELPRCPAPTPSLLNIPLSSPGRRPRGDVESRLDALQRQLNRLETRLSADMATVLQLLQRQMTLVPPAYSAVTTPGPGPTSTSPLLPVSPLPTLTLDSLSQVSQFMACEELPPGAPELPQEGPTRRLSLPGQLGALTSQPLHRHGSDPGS

SMILES | hERG current change (%, negative = inhibition) at 10uM [%]
CCOc1cc2c(cc1OC)C(NC(=O)C(F)(F)F)CC2=O (centres unmarked) | -0.243
COc1ccc(NC(=O)CN2CCC(NC(=O)C3CCCCC3)CC2)c([N+](=O)[O-])c1 | 23.8
CCN1C(=O)c2ccccc2S(=O)c2ccc(C(=O)NCc3ccc(OC)cc3)cc21 (centres unmarked) | -16
Cc1cc(SCC(=O)c2cccs2)n2nc(C)c(-c3ccccc3)c2n1 | -9.69
N#C/C(=C/c1cn(-c2ccccc2)nc1-c1cccc(OCc2ccc(F)cc2)c1)C(=O)NCCCn1ccnc1 | 10.1
COc1c(C)cc(Br)cc1C(=O)Nc1ccc(Cc2ccncc2)cc1 | -3.5
CN(c1ccc(C(=O)Nc2ccc3c(c2)n(C)c(=O)n3C)cc1)S(C)(=O)=O | 12.2
Cn1c(O)c(C=NC2CCCCC2)c(=O)[nH]c1=S | -5.38
NC(=O)COC(=O)CCCc1nc2ccccc2s1 | 2.57
CCOC(=O)c1ccc(NC(=O)C(=O)NCc2ccco2)cc1 | 15.7
CCOc1ccc(/C=N\NC(=O)CC(=O)NCCc2ccccc2)cc1 | 8.52
CN(CCNC(=O)CCCOc1cc(=O)n(C)c2ccccc12)Cc1ccccc1 | 0.455
C=C1C(=O)C=C[C@]2(C)C[C@@H]3OC(=O)[C@](C)(O)[C@H]3C[C@@H]12 | 0.224
COc1ccc(-n2cnc3cc(C(=O)N4CCC5(CC4)OCCO5)ccc32)cc1 | -42.8
CCC(C)NC(=O)c1c(N)n(/N=C/c2cccnc2)c2nc3ccccc3nc12 (centres unmarked) | 6.77
CCOC(=O)c1cc2n(n1)C(C(F)(F)C(F)(F)F)CC(C)N2 (centres unmarked) | 5.72
O=C(NCC(=O)N(c1ccc2c(c1)OCO2)C(C(=O)NC1CCCC1)c1cccs1)c1ccco1 (centres unmarked) | 8.55
CC(=O)C1=C(C)NC(SCC(N)=O)=C(C#N)C1c1ccco1 (centres unmarked) | 28.2
CCCS(=O)(=O)N1CCCC(C(=O)NCCN(C)Cc2ccccc2)C1 (centres unmarked) | -8.41
CCOc1ccc(-n2c(=O)[nH]cc(C(=O)Nc3ccc(OC)c(OC)c3)c2=O)cc1 | 11.9
Cc1ccc(N2CC(NC(=O)C3CC3)CC2=O)cc1 (centres unmarked) | -21.4
COC(=O)C1=C(C(=O)OC)[C@@H]2N(Cc3ccccc3)c3ccccc3[C@@]23C[C@@H](C(=O)OC)N(C(=O)NC2CCCCC2)C3=N1 | -12.1
Cc1ccc(C(=O)N/C(=C\c2cn(S(=O)(=O)N(C)C)c3ccccc23)C(=O)NCCCN2CCOCC2)cc1 | -18.7

SMILES | hERG current change (%, negative = inhibition) at 10uM [%]
CSCC[C@H](NC(=O)[C@@H]1Cc2ccccc2CN1)C(=O)Nc1cccc(C)c1 | -40.1
COC(=O)[C@H](C)NC(=O)Nc1ccc(OC)cc1OC | -5.46
CCN1CCn2c3c(c4cccc(C)c42)CCCC31.Cl (centres unmarked) | -28.9
CCc1c(C)sc(NC(=O)OC)c1C(=O)N1CCCCC1 | -4.94
CSc1nc(Cl)cc(Nc2ccc(O)cc2)n1 | -16.7
COC(=O)c1ccccc1NC(=O)NCc1ccccn1 | -6.01
CC(Sc1nnc(-c2ccncc2)n1-c1ccc(F)cc1)C(=O)NC1CC1 (centres unmarked) | 4.1
CCN(C(=O)CSc1nnc(-c2ccc(F)cc2)c2ccccc12)C1CCS(=O)(=O)C1 (centres unmarked) | -42.3
O=C1C2ON(c3ccc(Br)cc3)C(c3cccnc3)C2C(=O)N1C1CCCCC1 (centres unmarked) | -10.7
CCOc1cc(N2CCOCC2)c(OCC)cc1NC(=O)COC(=O)c1ccccc1C | -39.4
COc1ccc(CCNC(=S)Nc2ccc(C)cc2C)cc1 | 2.89
CC1Cc2ccccc2N1C(=O)c1ccc2nccnc2c1 (centres unmarked) | 0.174
CC1CCc2nc(NC(=O)C3CC3)sc2C1 (centres unmarked) | -1.82
Cc1ccc(NC(=O)CSc2nc(C)c(Cc3ccccc3)c(=O)[nH]2)cc1C | 21.2
O=C(c1ccsc1)N1CCCC(N2CCN(c3ccccc3F)CC2)C1 (centres unmarked) | -4.2
CC12CCC(=O)N1C(C(=O)Nc1nc3ccccc3s1)CS2 (centres unmarked) | 2.45
O=C(CCN1C(=O)c2ccccc2C1=O)Nc1ccc(S(=O)(=O)N2CCOCC2)cc1 | -7.55
Cc1ccc2nc(SCC(=O)c3ccc4c(c3)OCO4)[nH]c2c1 | -5.49
CCC(=O)N1N=C(c2ccc(NS(=O)(=O)CC)cc2)CC1c1ccc(C)cc1 (centres unmarked) | -14.1
O=C(CSc1nnc(-c2ccncc2)n1Cc1ccco1)Nc1ccccc1Cl | -36.3
CCOC(=O)CC1COc2ccccc2N1C(=O)c1cccc([N+](=O)[O-])c1 (centres unmarked) | -30.9
COCCN(C(=O)CSc1nnc(C)n1-c1ccccc1)c1c(N)n(Cc2ccccc2)c(=O)[nH]c1=O | 10.8
O=S1(=O)CCN(CCc2c[nH]c3ccccc23)CC1 | 9.02

SMILES | hERG current change (%, negative = inhibition) at 10uM [%]
Cn1c(N2CCN(S(=O)(=O)c3ccc(Cl)cc3)CC2)nc2ccccc21 | -34
COc1cccc(-c2noc(-c3ccc4c(c3)OCO4)n2)c1 | 10.9
Cc1ccccc1NC(=O)c1c(-c2ccccc2)noc1C | 5.96
CCN(C1CCS(=O)(=O)C1)S(=O)(=O)c1cccs1 (centres unmarked) | 14.8
CCc1ccc(NC(=O)N(CCCOC(C)C)C2CCN(C(C)=O)CC2)cc1 | -34.1
COc1ccccc1C/C(N)=N/OC(=O)c1ccc2c(c1)OCO2 | 36.5
CC(CCc1ccccc1)NC(=O)c1cccs1 (centres unmarked) | -39.8
CCOC(=O)C(Cc1ccc(NC(C)=O)cc1)N1C(=O)c2ccccc2C1=O (centres unmarked) | 0.00638
O=C(NCc1n[nH]c(=S)n1-c1ccc([N+](=O)[O-])cc1)c1ccc(S(=O)(=O)N2CCOCC2)cc1 | 11.5
COC(=O)c1c(C)[nH]c(C(=O)/C=C/c2cccc(Cl)c2)c1C | 8.69
Cc1cccc(OCC(=O)NCC(=O)n2nc(C)cc2C)c1 | 10.5
O=C1CSC(=S)N1c1ccc(F)cc1 | 19.2
Cc1nn2c(nc1=O)SCC(c1ccccc1)=N2 | 3.63
S=c1[nH]ccn1-c1ccccc1Cl | 20.3
CC(=O)Nc1ccc(N2C(=O)CC(Sc3nc(C)cc(C)n3)C2=O)cc1 (centres unmarked) | 13.3
O=C(c1ccc(NS(=O)(=O)c2ccccc2)cc1)N1CCCC1 | -8.95
Cc1ccc(-c2cc(-c3ccccc3Cl)c(C#N)c(N)n2)o1 | 3.05
O=C(COC(=O)C1CCCN1C(=O)c1cccs1)Nc1ccc2c(c1)OCO2 (centres unmarked) | -11.9
COc1cc(N)c(Cl)cc1Cl | 11.9
COc1cccc(CNS(=O)(=O)c2ccc3c(c2)N(C(C)=O)CCS3)c1 | -6.28
CCCOC(=O)CSc1nc(N)c(C#N)c(CC)c1C#N | -8.69
COc1cccc(C2=CC(c3ccc(OC)c(OC)c3)NC(=S)N2)c1 (centres unmarked) | 9.25
COc1ccc2nc(C)cc(SCC(=O)OC(C)C)c2c1 | -34.5

SMILES | hERG current change (%, negative = inhibition) at 10uM [%]
Cc1c(C(=O)OCCOc2ccccc2)[nH]c2c1C(=O)CCC2 | -18.2
COC(=O)c1ccc(NC(=O)CCN2C(=O)C3CC=CCC3C2=O)cc1 (centres unmarked) | -2.37
O=C(/C=C/c1ccco1)Nc1ccc(Cl)c(S(=O)(=O)N2CCOCC2)c1 | -7.88
COc1ccccc1C1CCN(Cc2cccc3ccccc23)CC1 | -13.9
Cc1ccc(NC(=S)NC(=O)C2CCCC2)cc1C | 22.8
O=C1/C(=N\S(=O)(=O)c2cccs2)C([n+]2ccc(CCCc3ccccc3)cc2)=C([O-])c2ccccc21 | -70.5
O=C(COC(=O)Cc1c[nH]c2ccccc12)NCCc1ccccc1 | -2.11
Cc1nc2sc(-c3ccccc3)cc2c(=O)n1-n1cccc1 | 1.2
O=C(COc1ccc(Cl)cc1)NCCCn1ccnc1 | -31.6
O=C(OCC(=O)c1ccc[nH]1)c1ccc(Br)cc1 | 0.262
Cn1c(SCCOc2ccccc2Cl)nnc1-c1ccncc1 | -19.7
O=S(=O)(Nc1cccc(F)c1)c1cccc2nsnc12 | 3.21
CC(=O)NCCn1c(SCc2ccccc2F)nc2ccccc2c1=O | -13.5
OC1CCN(c2c3c(nc4cc(-c5ccc(Cl)cc5)nn24)CCC3)CC1 | -22.6
COc1cc(Cl)c(C)cc1NC(=O)COC(=O)c1cc[n+]([O-])cc1 | -16.4
CC(C)COc1ccc(Cc2c(O)[nH]c(=S)[nH]c2=O)cc1 | 15
Cc1ccc(SCC(=O)N(C)CC(=O)Nc2cccc(F)c2)c(C)c1 | -13.6
CCN(CC)c1ccc(NC(=O)COC(=O)COc2ccccc2[N+](=O)[O-])cc1 | 3.42
CCOc1cc(C(=O)NCC(=O)N2CCC3(CC2)NCCc2[nH]cnc23)cc(OCC)c1OCC | 7.48
O=C(CCNC(=O)c1ccc([N+](=O)[O-])cc1)NC1CCCCCC1 | -25.3

Reference: PMC4336329 (PLoS ONE, 2015)
